Assay results from ChEMBL document CHEMBL4888484, “Replenishing the malaria drug discovery pipeline: Screening and hit evaluation of the MMV Hit Generation Library 1 (HGL1) against asexual blood stage Plasmodium falciparum ,using a nano luciferase reporter read-out” (2022).
Among all 150,000 compounds or so, about 540 (0.36%) showed an effect of 50% or more. This is one part of the list.

System: Plasmodium falciparum
Assay: Primary screen in NF54 nanoGlo assay, in single point, at 2uM, 72h; a lower Z score goes with more inhibition
Assay type: functional, Erythrocyte
Conditions: timepoint 72 hour

SMILES	% Inhibition	Z score
CC(=O)NCC1CCN(c2ccc3cc(Cl)cnc3n2)CC1	2%	-0.46
Cc1ccc(NC(=O)C(=O)N2CCCN(C)C3(CCN(C)CC3)C2)c(C)c1	-11%	1.4
CCC1CC(CC(=O)NS(=O)(=O)c2ccnn2C)CCO1 (stereo not drawn)	33%	-4.73
Cc1[nH]c(=O)c(C(=O)N[C@H](c2ccccn2)C(F)(F)F)c(C)c1C	-9%	1.73
COc1ccc([C@@H](C)NC(=O)N2CCCC(C)(F)C2)c(OC)c1 (stereo partly drawn)	1%	-0.1
Cc1nc(C(C)C)sc1[C@H](C)NCCCn1ccnc1	-2%	0.28
Cn1nc(-c2ccccc2)c(CN2CCOCC2)c1Cl	-8%	1.55
CC1CN(c2ccc(NC(=O)N(C)CC3CCCO3)cc2)CC(C)O1 (stereo not drawn)	-14%	1.21
CC1CN(CC2CCCO2)CCC1NCc1ccnc(OCC2CC2)c1 (stereo not drawn)	8%	-0.69
COc1ccc(OC[C@@H](O)CN2CCC(O)CC2)c(CN(C)CCC2CCOCC2)c1	-13%	1.34
CN(C)C(=O)c1ccc(Cl)cc1NCCOCC(F)(F)F	0%	0.02
C[C@H](NC(=O)N(C)Cc1ncc[nH]1)C(F)(F)F	4%	-0.88
CC(C)c1cc(=O)n(CCC2OCCO2)cn1	-17%	3.21
N#Cc1cccnc1NCc1ccc(S(=O)(=O)N2CCCC2)cc1	-7%	0.99
Cc1ccc(CNC(=O)N2C[C@@H]3CC[C@H]2CN(C(=O)c2ccncc2)C3)cc1	-9%	1.32
O=C1NCCN1C1CN(Cc2cccc(-c3ccccc3)c2)C1	-4%	0.54
C[C@H](O)CN(C)c1nccnc1N(C)C	0%	0
CCC(=O)NC[C@@H]1C[C@H](F)CN1S(=O)(=O)c1ccc(Cl)s1	3%	-0.46
CCOC(=O)c1coc(N2CCC3(CC2)CC(=O)N(Cc2ccccc2)C3)n1	4%	-0.49
O=C(CCc1ccccc1F)N1CC(CN2C(=O)COC2=O)C1	-5%	0.87
COc1cccc(NC(=O)N2C[C@@H]3CC[C@H]2CN(Cc2[nH]cnc2C)C3)c1	-11%	1.48

SMILES	% Inhibition	Z score
Cc1ccc([C@H](C)NC(=O)CCn2cccn2)cn1	-7%	1.24
Cc1ccccc1[C@@H](NC(=O)NC1(C(N)=O)CCCC1)c1ccncc1	-3%	0.5
CCCN1C[C@@H](NS(=O)(=O)c2ccc(-c3cc(C(F)(F)F)on3)o2)CC1=O	-12%	1.31
CN(C)[C@@]1(c2nnnn2C2CCCC2)CCN(C(=O)c2c[nH]nc2-c2ccccc2)C1	-13%	1.48
O=C(Nc1cnn(-c2ncncc2N2CCCCC2)c1)c1ccco1	-16%	1.76
CCOC(=O)Cc1c(-[n+]2ccccc2)[nH]c2ccccc12	1%	-0.17
c1cncc(Nc2nncn2CC2CCCCCC2)c1	-2%	0.22
Cc1cc(N2CC[C@H](OCc3csc(C)n3)C2)ccn1	-4%	0.63
Cc1sc2nc(-c3cccs3)nc(N3CC(O)C3)c2c1C	8%	-1.43
O=C1C2ON(c3ccccc3)C(c3cc(Br)ccc3O)C2C(=O)N1c1cccc2ccccc12 (stereo not drawn)	-17%	1.84
Cc1cc(F)c(S(=O)(=O)NC(=O)c2cnn3c2CCC3)c(F)c1	-4%	0.55
Cn1c(C2CC2)nc2cc(N[C@H]3CCCOC3)ccc21	-16%	1.64
Cc1cnc(C(=O)N2CCCCCCC2)cn1	2%	-0.27
Cc1ccsc1CNCCn1cccn1	-11%	1.38
Cc1cnc(CCNC(=O)C(C)C)n1C1CCCCC1	-1%	0.2
O=C(NCCc1ccc(F)cc1)c1coc(NC(=O)c2cnccn2)n1	11%	-1.92
Cc1cc(NC(=O)[C@H]2CC(=O)N(C(C)C)C2)n(C2CCCCC2)n1	-9%	1.29
Cc1ccccc1C(=O)N(Cc1cc(Cl)ccc1OCc1nc(CO)cs1)[C@@H](C)C(C)C	-2%	0.17
Cc1ccc(CN2CC[C@@H](c3nc(C)no3)N(S(C)(=O)=O)CC2)nc1	1%	-0.21
NCCNCCOCCOc1ccc(Cl)c(Cl)c1	20%	-2.69
Cc1cc(C)c(-c2cc(C(=O)N(CCC(=O)NC[C@H]3CCCO3)CC(C)C)no2)c(C)c1	7%	-0.93

SMILES	% Inhibition	Z score
O=C1CC[C@]2(CNC(=O)c3ccc4ccccc4n3)CCCC=C2N1	-15%	2.21
Cc1cc(N2CCN(S(=O)(=O)c3cccs3)CC2)nc(C(C)C)n1	-11%	1.5
Fc1cccc(-c2c3c(nn2-c2ccc(Cl)c(Cl)c2)CCc2ccccc2-3)c1	-6%	0.68
O=C(CN1CCOCC1)N1c2ccccc2CCc2ccccc21	6%	-0.71
COc1ccc(CC[C@H]2CCCCN2C(=O)C2CCNCC2)cc1OC	-4%	0.6
Cc1ccc(N2CC(C(=O)N3CCCC(c4ccnc(N)n4)C3)CC2=O)cc1 (stereo not drawn)	4%	-0.49
N#CC12C(N)=NC3(OCCO3)C1(C#N)C2c1ccc2c(c1)OCO2 (stereo not drawn)	6%	-0.69
COc1nc2c(cc1CNc1ccnc(C)n1)C(=O)N(C1CCCC1)C2	5%	-0.74
CCCNC(=O)C1CCN(S(=O)(=O)c2ccc3c(ccn3C)c2)CC1	-11%	1.7
CCOc1cccc(-c2ccc3nc(-c4cccc(OC)c4)c(CCC(=O)NCCc4ccc(OC)c(OC)c4)n3c2)c1	22%	-4.22
CCN(CC)S(=O)(=O)c1ccc(N2CCOCC2)c(NC(=O)c2ccc3c(c2)OCCO3)c1	-3%	0.6
Cc1nc2nc3c(c(N4CCN(c5cc(Cl)ccc5C)CC4)n2n1)CCCC3	-21%	1.93
N#Cc1ccc(N(CCO)Cc2csc(-c3ccco3)n2)cc1	-4%	0.5
Cc1ccc(-c2noc3c(Nc4ccc(C)c(Cl)c4)ncnc23)cc1	1%	-0.09
CC(C)c1ccc(CCN(C)C2CCN(S(C)(=O)=O)CC2)cc1	12%	-1.73
CN(C)c1noc(CN(Cc2cccc(O)c2)[C@H]2CC[C@H](O)CC2)n1	-9%	1.39
CC(Oc1cccnc1)C(=O)N1CCCC(S(N)(=O)=O)C1 (stereo not drawn)	28%	-3.14
O=C(c1ccc(F)c2ccccc12)N1CCC(N2C(=O)CCCC2=O)CC1	-11%	1.44
O=c1[nH]c2cccnc2n1C1CCN(c2ncnc3[nH]ccc23)CC1	1%	-0.23
Cc1cc(CNC(=O)[C@@H](C)CN2CCOCC2)cnc1C	-6%	1.25
Cc1cnc(C(=O)NCC2(c3ccccc3)CC2)cn1	-11%	1.73

SMILES	% Inhibition	Z score
Cc1cccc(S(=O)(=O)N2[C@@H]3CC[C@H]2CC(NC(=O)c2ccc(F)cc2)C3)c1 (stereo partly drawn)	-15%	2.76
O=C1CCC[C@@H](C(=O)Nc2cc(Cl)c(Cl)cc2O)N1	-2%	0.29
Cc1cc(=O)cc(C(=O)N[C@@H](CC(C)C)C(N)=O)n1C	-3%	0.42
CCOc1ccc(CNCCN2CCCC[C@@H]2CO)cn1	0%	0.08
CCOC(=O)C(=O)Nc1ccc(C)c(Cl)c1	-2%	0.4
CN(Cc1ccccc1)CC(C)(C)NCC(=O)NCc1ccc(F)cc1	-6%	0.86
CCOCCCNC(=O)N1CCCCC[C@@H]1CN1CCCC1	7%	-1.09
CN1CCN([C@H]2CCCCN(C(=O)Nc3ccc(N(C)C4CCCCC4)c(F)c3)C2)CC1	-17%	2.39
CC[C@@H](C(=O)N1CCC2(CC1)C(=O)N(CC(=O)N(C)C)CN2c1ccccc1)c1ccccc1	1%	-0.14
COc1ccc(CN2CCN(C(=O)CN3CCOCC3)CC2)c(Br)c1OC	1%	-0.13
CC[C@H](NC(=O)CCC(=O)N(C)C)c1ccc(C)cn1	-15%	1.59
COc1nn(C)cc1C(=O)N(Cc1cccs1)Cc1cccn1C	-14%	1.57
COCCCN(C[C@@H]1CCCN2CCCC[C@H]12)C(=O)C1CC(=O)N(c2n[nH]c3ccccc23)C1 (stereo partly drawn)	-19%	2.4
COc1ccc(CCNC(=O)[C@@H](NS(C)(=O)=O)C(C)(C)C)cc1OC	26%	-2.92
CN1CCCN(Cc2ccc3c(c2)CCO3)CC1=O	-6%	0.76
COc1ccc(Cl)cc1C(=O)N1CCCN(c2nnc3ccccn23)CC1	1%	-0.23
N#Cc1c(N)nc2c(c1-c1cnc(N3CCCC3)s1)C[C@@H](N)CC2	-3%	0.43
CN(C)c1ccnc(NC(=O)NCc2ccco2)c1	-14%	1.17
Cc1c(C(=O)N2CC[C@H](Nc3ncccn3)[C@@H](O)C2)cnc2ccnn12	-7%	1.31
C[C@H](NC(=O)NOCc1ccc(C(F)(F)F)cc1)c1nc[nH]n1	-16%	2.58
CCc1oc2c(NC(=O)N(C)[C@@H](C)CC(=O)NC)cccc2c1C	-12%	1.61
